# Measured values taken from paper PMC4336329 (PLoS ONE, 2015).
# In all, about 310,000 compounds went through this assay and about 2,200 (0.71%) showed an effect of 50% or more. The effect is printed as a negative number. The list shows a part of the results.
# Biological target: human ether-à-go-go-related gene (hERG) potassium channel (human, UniProt Q12809)
# Experiment: primary screen, population patch clamp on CHO cells stably expressing hERG
# Sequence of human ether-à-go-go-related gene (hERG) potassium channel (Q12809 whole entry, looked up): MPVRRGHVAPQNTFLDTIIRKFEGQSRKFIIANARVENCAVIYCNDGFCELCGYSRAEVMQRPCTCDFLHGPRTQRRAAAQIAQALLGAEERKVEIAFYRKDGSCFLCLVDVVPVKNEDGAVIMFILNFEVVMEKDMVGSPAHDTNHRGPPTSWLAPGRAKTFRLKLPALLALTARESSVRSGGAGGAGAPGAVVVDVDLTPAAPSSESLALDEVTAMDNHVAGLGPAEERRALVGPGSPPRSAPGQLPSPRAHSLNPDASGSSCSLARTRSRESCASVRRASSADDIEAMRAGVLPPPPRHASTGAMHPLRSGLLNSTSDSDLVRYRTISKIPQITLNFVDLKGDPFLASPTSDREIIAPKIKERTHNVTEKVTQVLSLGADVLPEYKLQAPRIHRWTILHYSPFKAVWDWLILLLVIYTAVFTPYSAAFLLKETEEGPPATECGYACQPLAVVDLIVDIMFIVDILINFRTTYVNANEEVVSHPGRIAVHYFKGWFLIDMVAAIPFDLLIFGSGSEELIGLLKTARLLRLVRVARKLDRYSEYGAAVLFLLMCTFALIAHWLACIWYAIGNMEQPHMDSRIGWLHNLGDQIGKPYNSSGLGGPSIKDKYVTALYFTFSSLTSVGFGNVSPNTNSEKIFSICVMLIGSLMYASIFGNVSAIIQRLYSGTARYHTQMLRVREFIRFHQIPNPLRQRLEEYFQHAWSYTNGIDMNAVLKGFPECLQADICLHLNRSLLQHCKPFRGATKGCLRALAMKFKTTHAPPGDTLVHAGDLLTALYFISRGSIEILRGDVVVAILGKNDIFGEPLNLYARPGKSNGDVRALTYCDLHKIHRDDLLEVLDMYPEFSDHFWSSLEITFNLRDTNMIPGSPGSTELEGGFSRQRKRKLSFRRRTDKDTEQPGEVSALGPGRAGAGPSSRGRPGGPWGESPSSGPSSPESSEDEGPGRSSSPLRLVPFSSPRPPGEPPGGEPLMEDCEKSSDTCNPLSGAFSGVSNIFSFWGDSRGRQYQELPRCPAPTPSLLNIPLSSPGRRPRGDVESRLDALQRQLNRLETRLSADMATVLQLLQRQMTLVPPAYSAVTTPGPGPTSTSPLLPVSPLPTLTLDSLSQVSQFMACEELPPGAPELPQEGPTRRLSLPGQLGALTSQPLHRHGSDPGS
row,Compound,"hERG current change (%, negative = inhibition) at 1uM [%]"
1,COc1ccc(/C=N/NC(=O)c2nc(-c3ccccc3)n(-c3ccccc3)n2)cc1,19.3
2,CCc1ccccc1NC(=S)N(Cc1ccc(OC)cc1)CC1CCC(C(=O)O)CC1 (stereo not shown),8.22
3,CCOc1ccc(CN2CCN(C(=O)Cc3ccccc3)CC2)cc1.O=C(O)C(=O)O,2.28
4,O=C(NCc1cccc(C(F)(F)F)c1)C1CC(c2cccc(F)c2)=NO1 (stereo not shown),6.77
5,Cc1[nH]n(-c2ccccc2)c(=O)c1C(c1cccc([N+](=O)[O-])c1)c1c(C)[nH]n(-c2ccccc2)c1=O,10.4
6,O=C1CC2(CCN(C(=O)c3ccc(F)cc3)CC2)Oc2ccccc21,-42.2
7,CCCCC(=O)NC(=S)Nc1cc(C(=O)O)ccc1OC,13.1
8,CC(=O)c1ccc(S(=O)(=O)Nc2ccc(C(=O)N(C)CC(=O)Nc3cccc(C)c3C)cc2)cc1,10.9
9,C=C(C)c1cccc(C(C)(C)NC(=O)Nc2cc(C)ccc2OC)c1,11.9
10,COC(=O)c1cc(S(=O)(=O)N2CCCCCC2)cn1C,15.2
11,CCCn1c(=O)n(N)c2ccccc21,7.11
12,O=C(c1cnc2sccn2c1=O)N1CCN(c2ccccc2Cl)CC1,8.86
13,O=C(NCCCNC(=O)NC1CCCCC1)NC1CCCCC1,15
14,COc1ccc2ccccc2c1CNCCc1ccccc1.Cl,0.34
15,CCc1cc(/C(Cc2csc(C)n2)=N/O)c(O)cc1O,10.9
16,N#Cc1cc2c(nc1SCC(=O)Nc1sc3c(c1C#N)CCC3)CCCCC2,-0.858
17,Cc1ccc(C(=O)CC(C(=O)O)n2ccc(C)n2)cc1 (stereo not shown),8.84
18,CC(=O)NC(Cc1cccc(C)c1)C(=O)NC1CCN(c2ncccc2[N+](=O)[O-])CC1 (stereo not shown),9.08
19,CC(C)NC(=O)COc1coc(CN2CCN(C(=O)c3ccco3)CC2)cc1=O,19.3
20,O=[N+]([O-])c1cccc(S(=O)(=O)N2CCN(c3ccccn3)CC2)c1,10.8
21,COc1ccccc1NC(=O)c1ccc(C)s1,15
22,Cc1n[nH]c(=O)nc1NC1CCCCC1,15.8
23,O=C(Nc1nc2ccccc2[nH]1)c1ccc([N+](=O)[O-])cc1,25.7

row,Compound,"hERG current change (%, negative = inhibition) at 1uM [%]"
1,Cc1ccccc1N1CCN(C2CCCN(C(=O)COc3ccccc3)C2)CC1 (stereo not shown),-33.2
2,Fc1ccc(-c2csc(-c3ccncc3)n2)cc1,1.28
3,O=C(COC(=O)c1ccncc1)Nc1cc(Cl)c(Cl)cc1Cl,3.01
4,CC(=O)O[C@H]1C2OC(=O)C(C)=C2[C@@H]2OC(=O)[C@]3(CCC4OC41C)OC23 (stereo partly shown),16
5,CCn1c(=O)cc(OCC(=O)N2CCN(c3ccc(F)cc3)CC2)c2ccccc21,-46.3
6,Cn1nccc1C(=O)NC1CC(C)(C)Cc2c1cnn2-c1ccc(F)cc1 (stereo not shown),-20
7,COc1ccc(-n2ncc3c(SCC(=O)N4CCN(c5ccccc5OC)CC4)ncnc32)cc1,4.13
8,Cc1sc(NC(=O)CSc2nnc(-c3ccc(F)cc3)o2)c(C#N)c1C,10.5
9,Cc1ccc(CNc2ccc(Cl)cc2[N+](=O)[O-])cc1,-1.51
10,COC(=O)c1sccc1NC(=O)c1ccc(C)o1,14.1
11,CN(C)S(=O)(=O)NCC1CCCN(Cc2ccc(-c3ccccc3)cc2)C1 (stereo not shown),7.29
12,O=C(/C=C/c1cccs1)Nc1nncs1,-0.579
13,CCN1CCN(c2ccc(NC(=O)c3cccc(N4CCCC4=O)c3)cc2)CC1,13.3
14,Cc1ccc(-c2nc3ncccc3o2)cc1NC(=O)C(C)(C)C,14.6
15,Cc1ccc(-c2noc(C3CCN(S(=O)(=O)c4ccc5c(c4)OCCO5)CC3)n2)o1,10.2
16,CCN1CCN(CCOCCOc2ccccc2)CC1.O=C(O)C(=O)O,16.4
17,Cn1cnnc1SCC(=O)Nc1ccc(OC(F)F)cc1,9.26
18,O=C(C1CCC(CNc2c(N3CCOCC3)c(=O)c2=O)CC1)N1CCN(c2ccccc2)CC1 (stereo not shown),24.8
19,CCC1Oc2ccccc2N(CC(=O)NCCCN2CCCCC2CC)C1=O (stereo not shown),10.5
20,O=c1cc(NC2CCCCC2)[nH]c(=O)[nH]1,11.5
21,CCCn1ncc(CN2CCC(n3nccc3NC(=O)CCc3ccccc3)CC2)c1C,3.15
22,O=C(Nc1nc2ccc(SC(F)F)cc2s1)c1ccc(NS(=O)(=O)c2ccc(F)c(F)c2)cc1,5.9
23,Cc1nc(NC(=O)C2CC2)sc1C(=O)N(C)C,17.6

row,Compound,"hERG current change (%, negative = inhibition) at 1uM [%]"
1,Cc1cccc(CN2CCN(c3ccccn3)CC2)c1,-0.3
2,CS(=O)(=O)c1ccc2nc(NC(=O)Cc3ccccc3)sc2c1,12.5
3,Cc1ccc(NC(=O)c2cccc3c2C(=O)N(C2CCCCC2)C3)c(C)c1,17.2
4,O=c1c2c(nc3n1CCCCC3)sc1c(O)c(Br)ccc12,-0.391
5,CC1CCCC(NC(=O)COC(=O)c2ccc(Cl)nc2)C1C (stereo not shown),7.96
6,O=C(CNS(=O)(=O)c1ccccc1)OCc1cccc([N+](=O)[O-])c1,15.1
7,O=C(NCCc1ccccc1)C1CCC(CNS(=O)(=O)c2ccccc2)CC1 (stereo not shown),15
8,Cc1ccc2nc(-c3ccc(NC(=O)CN(c4ccccc4C)S(C)(=O)=O)cc3)sc2c1,-4.07
9,CN1CCN(C(=O)c2ccccc2[N+](=O)[O-])CC1,12.2
10,Clc1cccc(OCCCn2ccnc2)c1,13.5
11,COc1ccc(S(=O)(=O)Nc2ccc(C)cc2)cc1OC,-14.9
12,Cc1cc(OCC(=O)NCC2CCC(C(=O)O)CC2)c2c(C)cc(=O)oc2c1 (stereo not shown),6.61
13,COc1ccccc1C1=CC(=O)CCC1,12.5
14,CC(C)COP(=O)(c1ccc(N(C)C)cc1)C(O)c1ccccc1F (stereo not shown),-11.1
15,CC1(O)N(CCC(=O)Nc2cccc(F)c2)C(=O)OC12CCCCC2 (stereo not shown),14.7
16,CCOc1ccc(N2Cc3ccccc3C2)cc1,9.33
17,CCC1CN(S(=O)(=O)c2ccc3c(c2)NC(=O)CC(=O)N3)c2cc(Cl)ccc2O1 (stereo not shown),7.34
18,OCCNc1nc(Nc2ccccc2Oc2ccccc2)nc(N2CCCC2)n1,17.1
19,O=C(CN1C(=O)C2CC=CCC2C1=O)Nc1nnc(SCc2ccc(Cl)cc2)s1 (stereo not shown),2.5
20,CCN(CC)Cc1ccccc1Sc1ccccc1.O=C(O)/C=C\C(=O)O,-6.63
21,CCOC(=O)c1csc(NC(=O)Nc2cccc(Cl)c2)n1,15.1
22,Cn1c(SCc2nc3ccccc3s2)nnc1-c1ccc2c(c1)OCO2,-10.7
23,CN(CC1COCCO1)C(=O)c1cc(COc2c(F)cccc2F)on1 (stereo not shown),5.08

row,Compound,"hERG current change (%, negative = inhibition) at 1uM [%]"
1,CCN(CCO)Cc1cc(=O)oc2cc3c(cc12)CCC3,21.6
2,COc1ccc(N2CC(C(=O)N3CCOCC3)CC2=O)cc1 (stereo not shown),13.4
3,CCOC(=O)c1c(C)[nH]c(C(=O)COC(=O)c2cc(C)oc2C)c1C,-7.59
4,CC(=O)NN1C(=O)/C(=C\c2ccc(Cl)cc2)SC1=S,19.1
5,N#Cc1ccc(OCC(=O)Nc2ccncc2)cc1,16.6
6,O=C(Nc1nnc(-c2ccco2)o1)c1ccc(S(=O)(=O)N2CCCC2)cc1,11.1
7,O=C(N1CCN(c2ncccn2)CC1)C12CC3CC(CC(C3)C1)C2,10.1
8,Cc1ccc(-c2nnc(SCC(N)=O)n2C)cc1,9.74
9,CCCC1=NN(C(=O)C(=O)Nc2ccc(Br)cc2)C(O)(C(F)(F)F)C1 (stereo not shown),7.3
10,CCC1CCCCN1CC(=O)c1c(C)[nH]c2ccccc12 (stereo not shown),-1.2
11,CC(C)(C)c1ccc(C(=O)NC(=S)Nc2nc3c(s2)CCCC3)cc1,9.38
12,CCn1c(NCCO)nc2c(c1=O)C(C)(CC)Cc1ccccc1-2 (stereo not shown),13.9
13,COC(=O)C1=C(c2ccc(F)cc2OCc2ccccc2)C[C@@H]2CC[C@H]1N2C(=O)NCc1ccccc1C(F)(F)F,16.4
14,O=C(Nc1ccc(F)cc1)c1cc(-c2ccncc2)nc2c(Cl)cccc12,11.5
15,CC(=O)c1sc(NC(=O)COc2ccc(Cl)cc2C)nc1C,10.2
16,CSc1nsc(SCC(=O)N2CCCCC2)n1,10.3
17,CC(=O)Nc1ccc(NC(=O)c2ccc(-c3ccc([N+](=O)[O-])cc3)o2)cc1,-5.28
18,O=C(CN1C(=O)NC(Cc2ccccc2)(Cc2ccccc2)C1=O)NCC1CCCCC1,-7.14
19,COc1ccc(OC)c(-c2nc(C)sc2CC(=O)O)c1,12.7
20,O=C(CCCc1nc(-c2ccc(Cl)cc2)no1)Nc1cccnc1,1.44
21,NC(=O)OCC(COC(N)=O)c1ccccc1.O,2
22,C/C(NCCCn1ccnc1)=C(\C#N)C(N)=O,-3.48
